PubChem BioAssay (NCI)
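Five concentrations, 48 hours, 96-well plates. GI50 is the concentration that inhibits growth by half. At the TGI there is no net growth.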

Tested on: NCI-H322M lung
Assay: NCI anticancer screen, dose series, 48 h

| Structure (SMILES) | GI50 [µM] | TGI [µM] |
| --- | --- | --- |
| Cn1ccnc1C(=O)/C=C/c1ccc(NC(=O)Nc2ccccc2)cc1 | 17.4 | 60 |
| CC(C)(C)Nc1nc2c(OCCc3ccccc3)cccn2c1-c1cccc(Oc2ccccc2)c1 | 9.99 | > 100 |
